Measured values from patent US20250177546A1, “ROR1-TARGETED BINDING MOLECULE AND USE THEREOF” (SANYOU BIOPHARMACEUTICALS CO., LTD., priority 2022, published 2025).

Tests used:
[1] = target: T1, human ROR1 on A549 tumor cells (Homo sapiens, UniProt Q01973); assay: FACS binding to A549 tumor cells
T1 construct: endogenous in cells; host or cells: A549 (human non-small cell lung cancer)

A549 cells = assay: ADC tumor cell killing, MTS assay, A549; assay type: cell-based, human; details: 72 h, relative to control 99961.1-MMAE
MDA-MB-468 cells = assay: ADC tumor cell killing, CCK8 assay, MDA-MB-468; assay type: cell-based, human; details: CCK8, 72 h
HT-29 tumor cells = assay: ADC internalization efficiency by FACS, HT-29; assay type: cell-based, human; details: relative to positive control ADC
Jeko-1 cells = assay: ADC tumor cell killing, CCK8 assay, Jeko-1; assay type: cell-based, human; details: CCK8, 72 h
A549 tumor = assay: ADC efficacy in mouse model bearing A549 tumor; assay type: in vivo; details: 10 mpk
HT-29 tumor = assay: ADC efficacy in mouse model bearing HT-29 tumor; assay type: in vivo
HT-29 cells = assay: ADC tumor cell killing, MTS assay, HT-29; assay type: cell-based, human; details: 96 h, relative to control 99961.1-MMAE
[2] = target: T2, human ROR1 on HT-29 tumor cells (Homo sapiens, UniProt Q01973); assay: FACS binding to HT-29 tumor cells; details: relative to corresponding positive controls (99961.1, 99961.1-MMAE)
T2 construct: endogenous in cells; host or cells: HT-29 (human colon cancer)
T2 sequence (Q01973 30-937): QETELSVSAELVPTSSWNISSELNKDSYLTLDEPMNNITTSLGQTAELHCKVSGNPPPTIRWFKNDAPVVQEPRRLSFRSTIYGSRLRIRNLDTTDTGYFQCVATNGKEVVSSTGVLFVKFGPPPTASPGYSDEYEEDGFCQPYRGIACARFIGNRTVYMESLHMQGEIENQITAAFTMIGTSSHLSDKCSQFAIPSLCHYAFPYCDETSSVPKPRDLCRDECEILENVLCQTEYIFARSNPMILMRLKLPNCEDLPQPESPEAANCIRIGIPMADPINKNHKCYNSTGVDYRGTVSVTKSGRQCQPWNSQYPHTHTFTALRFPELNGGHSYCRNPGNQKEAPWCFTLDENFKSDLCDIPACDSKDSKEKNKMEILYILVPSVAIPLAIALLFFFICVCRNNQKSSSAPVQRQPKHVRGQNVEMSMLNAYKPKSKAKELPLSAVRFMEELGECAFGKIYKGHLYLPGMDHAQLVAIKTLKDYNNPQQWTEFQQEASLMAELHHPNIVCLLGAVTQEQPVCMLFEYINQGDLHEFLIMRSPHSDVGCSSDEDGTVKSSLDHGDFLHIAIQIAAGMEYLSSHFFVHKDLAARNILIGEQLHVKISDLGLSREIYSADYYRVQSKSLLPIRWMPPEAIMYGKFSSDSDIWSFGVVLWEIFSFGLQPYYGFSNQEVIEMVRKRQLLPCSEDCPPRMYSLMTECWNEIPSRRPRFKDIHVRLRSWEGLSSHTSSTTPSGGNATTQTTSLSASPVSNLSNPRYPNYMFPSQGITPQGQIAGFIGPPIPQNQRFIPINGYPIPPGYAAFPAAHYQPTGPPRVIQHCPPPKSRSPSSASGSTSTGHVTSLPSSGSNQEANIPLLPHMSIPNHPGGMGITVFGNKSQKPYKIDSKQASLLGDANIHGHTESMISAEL

A549 tumor cells = assay: ADC internalization efficiency by FACS, A549; assay type: cell-based, human; details: relative to control ADC 99961.1-MMAE
NCI-H1944 cells = assay: ADC tumor cell killing, CCK8 assay, NCI-H1944; assay type: cell-based, human; details: CCK8, 72 h
huROR1-HEK293 cells [3] = assay: Antibody internalization by Fab-Zap method (MTS readout); assay type: cell-based, human; details: 48 h, relative to control antibody 99961.1
huROR1-HEK293 cells [4] = assay: Antigen-dependent killing effect of ADC, CCK8 assay; assay type: cell-based, human; details: CCK8, 96 h; pre-incubation with 100 μg/mL antibody before corresponding MMAE ADC

T1 sequence (Q01973 30-937): as above

B1: B62-H3L3-MMAE (conjugate)
heavy: EVQLVESGGGLVQPGGSLRLSCAASGFTFSSYVMSWVRQAPGKGLEYVATINSNGGNTYYADSVKGRFTISRDNSKNTLYLQMGSLRAEDTAMYYCARDSLGLRRRDYAMDYWGQGTTVTVSS[human IgG1 constant region not listed]
light: DIQMTQSPSSLSASVGDRVTITCVTSIDIDDDVNWYQQKPGKAPKLLISAGNTLRPGVPSRFSGSGSGTDFTFTISSLQPEDIATYYCLQSDNLPYTFGGGTKLEIKRTVAAPSVFIFPPSDEQLKSGTASVVCLLNNFYPREAKVQWKVDNALQSGNSQESVTEQDSKDSTYSLSSTLTLSKADYEKHKVYACEVTHQGLSSPVTKSFNRGEC
[1]; after coupling
  binding activity of ADC to A549 cells relative to the corresponding naked antibody: slightly inferior to those of the corresponding naked antibodies
[1]; in words, relative to control 99961.1 (ADC: 99961.1-MMAE)
  binding activity/affinity to A549 tumor cells: superior to those of the corresponding positive controls
A549 cells
  killing effect on A549 tumor cells: slightly inferior to that of the control 99961.1-MMAE
MDA-MB-468 cells
  EC50: 28.6 nM
HT-29 tumor cells
  internalization rate in HT-29 cells: slightly lower than that of the positive control ADC
Jeko-1 cells
  EC50: 50.1 nM
A549 tumor; BIW*3
  anti-tumor effect relative to positive control ADC: comparable to that of the positive control ADC
A549 tumor; tail vein BIW*3, day 27
  Tumor growth inhibition (TGI): 18.82%
A549 tumor; tail vein BIW*3, day 31
  Tumor growth inhibition (TGI): 33.29%
A549 tumor; tail vein BIW*3, day 34
  Tumor growth inhibition (TGI): 30.91%
A549 tumor; tail vein BIW*3, day 38
  Tumor growth inhibition (TGI): 40.03%
A549 tumor; tail vein BIW*3, day 41
  Tumor growth inhibition (TGI): 37.77%
A549 tumor; tail vein BIW*3, day 45
  Tumor growth inhibition (TGI): 35.15%
A549 tumor; tail vein BIW*3, day 48
  Tumor growth inhibition (TGI): 36.38%
HT-29 tumor; 2 mpk, tail vein BIW*4, day 23
  Tumor growth inhibition (TGI): −1.05%
HT-29 tumor; 2 mpk, tail vein BIW*4, day 27
  Tumor growth inhibition (TGI): 1.92%
HT-29 tumor; 2 mpk, tail vein BIW*4, day 30
  Tumor growth inhibition (TGI): −2.38%
HT-29 tumor; 2 mpk, tail vein BIW*4, day 34
  Tumor growth inhibition (TGI): 4.20%
HT-29 tumor; 2 mpk, tail vein BIW*4, day 37
  Tumor growth inhibition (TGI): 17.04%
HT-29 tumor; 2 mpk, tail vein BIW*4, day 41
  Tumor growth inhibition (TGI): 16.26%
HT-29 tumor; 2 mpk, tail vein BIW*4, day 44
  Tumor growth inhibition (TGI): 23.06%
HT-29 tumor; 2 mpk, tail vein BIW*4, day 48
  Tumor growth inhibition (TGI): 27.19%
HT-29 tumor; 2 mpk, tail vein BIW*4, day 51
  Tumor growth inhibition (TGI): 33.54%
HT-29 tumor; 10 mpk, tail vein BIW*4, day 23
  Tumor growth inhibition (TGI): 20.27%
HT-29 tumor; 10 mpk, tail vein BIW*4, day 27
  Tumor growth inhibition (TGI): 29.04%
HT-29 tumor; 10 mpk, tail vein BIW*4, day 30
  Tumor growth inhibition (TGI): 23.90%
HT-29 tumor; 10 mpk, tail vein BIW*4, day 34
  Tumor growth inhibition (TGI): 48.45%
HT-29 tumor; 10 mpk, tail vein BIW*4, day 37
  Tumor growth inhibition (TGI): 63.35%
HT-29 tumor; 10 mpk, tail vein BIW*4, day 41
  Tumor growth inhibition (TGI): 67.65%
HT-29 tumor; 10 mpk, tail vein BIW*4, day 44
  Tumor growth inhibition (TGI): 68.50%
HT-29 tumor; 10 mpk, tail vein BIW*4, day 48
  Tumor growth inhibition (TGI): 73.86%
HT-29 tumor; 10 mpk, tail vein BIW*4, day 51
  Tumor growth inhibition (TGI): 73.87%
HT-29 tumor; high-dose (10 mpk), BIW*4
  tumor inhibition effect: significant tumor inhibition effects
  tumor inhibition effect relative to 99961.1-MMAE: slightly weaker than that of the control ADC 99961.1-MMAE
HT-29 tumor; lower dose (2 mpk), BIW*4
  Tumor growth inhibition relative to control ADC: significantly better than that of the control ADC 99961.1-MMAE
HT-29 cells
  killing effect on HT-29 tumor cells: slightly inferior to that of the control 99961.1-MMAE
[2]
  binding activity to HT-29 cells: slightly superior to those of the corresponding positive controls
A549 tumor cells
  internalization rate in A549 cells: slightly lower than that of the positive control ADC
NCI-H1944 cells
  EC50: 129 nM

B2: B31-H3L3: humanized anti-ROR1 antibody derived from murine antibody B31; CDRs SEQ ID NO 4-6, 43, 46, 48 (antibody)
heavy: EVQLVESGGGLVQPGGSLRLSCAASGFTFSRYAMSWVRQAPGKGLEWVASISRGGSTYYADSVKGRFTISRDNSKNTLYLQMNSLRAEDTAVYYCASYFGNYDAMDYWGQGTTVTVSS[human IgG1 constant region not listed]
light: DIQMTQSPSSLSASVGDRVTITCRASQDINNYVSWFQQKPGKAPKSLIYRANRLVSGVPSRFSGSGSGTDFTFTISSLQPEDFATYYCLQFDEFPYTFGGGTKLEIKRTVAAPSVFIFPPSDEQLKSGTASVVCLLNNFYPREAKVQWKVDNALQSGNSQESVTEQDSKDSTYSLSSTLTLSKADYEKHKVYACEVTHQGLSSPVTKSFNRGEC
huROR1-HEK293 cells [3]
  internalization effect/rate (Fab-Zap): comparable to that of the control antibody 99961.1
huROR1-HEK293 cells [4]
  killing effect of the ADC on huROR1-HEK293 cells inhibited by the corresponding antibody: significantly competitively inhibited
